# Whole data set: some 33,000 sequences, median “E-score (-0.5 to 0.5)” near -0.032, cut for the highest 2% near 0.36. Some of the results follow.
# Biological target: T1, Sko1 (UniProt Q02100)
# T1 sequence: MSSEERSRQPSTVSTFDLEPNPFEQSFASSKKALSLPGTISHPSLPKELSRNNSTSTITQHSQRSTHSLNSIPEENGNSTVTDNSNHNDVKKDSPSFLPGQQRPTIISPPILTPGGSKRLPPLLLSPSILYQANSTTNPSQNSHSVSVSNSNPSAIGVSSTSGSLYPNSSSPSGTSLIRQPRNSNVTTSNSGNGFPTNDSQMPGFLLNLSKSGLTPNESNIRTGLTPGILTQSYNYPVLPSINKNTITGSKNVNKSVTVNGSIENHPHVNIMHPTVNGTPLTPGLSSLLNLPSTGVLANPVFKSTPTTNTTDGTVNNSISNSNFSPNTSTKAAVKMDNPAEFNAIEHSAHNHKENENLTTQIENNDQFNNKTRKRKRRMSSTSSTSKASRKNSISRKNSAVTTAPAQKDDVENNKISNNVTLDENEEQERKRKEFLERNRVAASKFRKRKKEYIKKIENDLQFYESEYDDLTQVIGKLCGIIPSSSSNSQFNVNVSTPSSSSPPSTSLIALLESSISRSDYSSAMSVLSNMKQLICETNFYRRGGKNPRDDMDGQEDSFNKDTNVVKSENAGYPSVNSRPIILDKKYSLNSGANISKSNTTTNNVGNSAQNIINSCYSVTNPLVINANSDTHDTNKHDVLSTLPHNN
# Assay: PBM E-score (8-mer binding enrichment) (E-score (-0.5 to 0.5)); higher = stronger / more preferred TF binding; most listed sequences are background and not binding sites
# Conditions: protein concentration: 200 nM; construct: GST-full length
# Procedure, shortened: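 Masliner-normalised scans of fluorescent anti-GST signal were the basis for scoring. That signal came from GST-tagged yeast transcription factors applied at about 100-200 nM to double-stranded universal all-10-mer Agilent arrays on fresh or once-stripped slides. Each ungapped eight-base word, pooled with its reverse complement, received an E-score from the Universal PBM Analysis Suite.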
row,Sequence,PBM E-score
1,GCGATATA,0.00689
2,ATGTCGCA,0.222
3,CGGAACAC,0.0493
4,AGTCGTTG,-0.0462
5,ATACGCGC,0.188
6,CAGAGGGA,-0.267
7,CCTACCGC,-0.148
8,AGGTGTTC,-0.0318
9,CAGGGGGG,-0.241
10,AGCTATTG,0.0351
11,GATAGAGC,-0.0529
12,TGCCAAAA,0.0993
13,AAAGTTCA,-0.103
14,ACTTTACG,0.379
15,CGTGGGAA,0.00507
16,GTATTAAC,0.112
17,TAGCGGAA,-0.157
18,ATCCACTG,-0.0759
19,ACAGCTAG,-0.262
20,ACCTTGCT,-0.242
21,ATATGGAT,0.0267
22,CGGCACGC,-0.174

row,Sequence,PBM E-score
1,GGGGATCA,-0.215
2,CAAAGCAC,0.0255
3,CTGTCTTC,-0.194
4,ACTTCGGG,-0.304
5,AAAGTCCC,-0.261
6,GGGCTTGA,-0.212
7,CCAATTGC,-0.0746
8,ACACAGGG,-0.0935
9,AACCTGAA,-0.164
10,CATGGCAA,-0.0238
11,TGCTGTAA,-0.0162
12,TTCAACAA,0.126
13,CCAACTAG,-0.0007
14,GCCGAACA,0.0478
15,AAATTATT,0.252
16,CCCGAATA,-0.115
17,AAGTAGAC,-0.0421
18,CATAGTGG,-0.0579
19,AGAAGCAG,-0.144
20,ACAAGGTG,0.0682
21,GACGAGGA,0.122
22,CTCTGGTA,-0.133

row,Sequence,PBM E-score
1,AGCCGTGG,-0.139
2,AGATCGTC,0.0445
3,TATCGCGA,-0.0183
4,ACCAACTG,-0.0438
5,AGGCCGAA,-0.248
6,GACATTAC,0.284
7,ATGATGAA,0.321
8,GGCGATAA,-0.191
9,CACATCCC,-0.19
10,ATTTAGCC,0.0463
11,CCATTTAC,0.16
12,AAAGAGGT,-0.158
13,ACCACTAT,-0.168
14,ACCCAGCG,-0.0727
15,AAGGGATT,-0.0467
16,ACTGAGGA,-0.208
17,ATTTTGAA,0.167
18,GACTCAAC,0.12
19,AGCAGATA,-0.0503
20,CTTGCATA,0.0594
21,GATACAAC,0.236
22,ATTTACGG,0.129

row,Sequence,PBM E-score
1,TGCATGAA,0.0308
2,CCACTAAC,0.065
3,CACCGTCG,-0.174
4,CACGCTGA,0.0429
5,CAGCGCAG,-0.198
6,CAAGACCC,-0.22
7,AAGACTCG,-0.128
8,CCGCGGCG,-0.238
9,GACGCCTA,-0.163
10,CCAGTGAA,0.0532
11,CGATTGTC,0.0842
12,CAAAAGCC,-0.221
13,AATACAGC,0.00789
14,CTGATCGA,-0.0593
15,TCCCCAAA,0.103
16,ACTTCATC,0.0947
17,GAAGGTAC,-0.0147
18,AGGTCGTG,0.0315
19,AGGCCACA,-0.18
20,AGGTAATA,0.208

# Reference: the supplement of paper PMC3334620
